# Article PMC6919601, “Identification of Plasmodium dipeptidyl aminopeptidase allosteric inhibitors by high throughput screening” (PLoS ONE, 2019)
# Screen size: about 110,000 compounds; about 230 (0.21%) showed an effect of 50% or more. This is one part of the list.
# Target: DPAP1 (Plasmodium falciparum, UniProt Q8IIJ9)
# Test: primary screen, percent inhibition; read by cleavage of a fluorogenic dipeptide substrate; higher = more effect of the substance
# Design: species or system P. falciparum D10 trophozoite lysates; single well
# 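Note: 30 min substrate incubation versus DMSO and 10 µM JCP410 controls.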
# Chain of DPAP1 (Q8IIJ9 whole entry, looked up): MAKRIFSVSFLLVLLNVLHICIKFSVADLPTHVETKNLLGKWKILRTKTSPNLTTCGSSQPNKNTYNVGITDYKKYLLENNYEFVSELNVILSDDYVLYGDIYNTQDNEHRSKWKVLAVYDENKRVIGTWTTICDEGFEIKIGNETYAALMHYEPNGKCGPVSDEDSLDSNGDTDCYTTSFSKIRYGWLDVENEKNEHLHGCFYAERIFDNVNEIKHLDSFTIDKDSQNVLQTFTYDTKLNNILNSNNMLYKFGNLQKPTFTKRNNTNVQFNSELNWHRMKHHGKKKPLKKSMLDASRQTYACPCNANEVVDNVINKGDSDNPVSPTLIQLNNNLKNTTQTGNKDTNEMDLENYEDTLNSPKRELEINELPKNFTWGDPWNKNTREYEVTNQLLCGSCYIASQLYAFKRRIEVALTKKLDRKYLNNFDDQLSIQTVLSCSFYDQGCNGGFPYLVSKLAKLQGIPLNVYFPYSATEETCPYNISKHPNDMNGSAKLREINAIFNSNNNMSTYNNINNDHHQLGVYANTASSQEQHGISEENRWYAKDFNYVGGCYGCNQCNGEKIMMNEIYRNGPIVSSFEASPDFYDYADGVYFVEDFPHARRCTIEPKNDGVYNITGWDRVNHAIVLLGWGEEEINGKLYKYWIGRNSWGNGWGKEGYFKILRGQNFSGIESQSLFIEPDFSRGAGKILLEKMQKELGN
row,Compound,% Inhibition @ 10 uM
1,O=C(CCC(=O)Nc1ccc(F)cc1)Nc1ccc(F)cc1,-0.366%
2,Oc1ccccc1CN1CCCN(Cc2ccccc2O)C1,-3.06%
3,CC1C2=C(CC(C)(C)CC2=O)OC2=C1C(=O)CC(C)(C)C2,-0.693%
4,COc1cccc(OC)c1C(=O)NCCC1=CCCCC1,-0.132%
5,COc1ccc(Br)cc1CN1CCN(c2cccc(C(F)(F)F)c2)CC1,3%
6,CC(=O)c1ccc(NC(=O)c2ccccc2C)cc1,0.907%
7,COc1ccc(CCNC(=O)CNS(=O)(=O)c2ccc(Br)s2)cc1OC,3.27%
8,COc1ccc(C2=NN(C(=O)CCC(=O)O)C(c3ccccc3)C2)cc1 (centres unmarked),-4.5%
9,Cc1c(Cl)cccc1NS(=O)(=O)c1ccc(Cl)cc1,1.63%
10,N#CCNC(=O)[C@H](Cc1c(F)cccc1F)NC(=O)OCc1ccccc1,-0.207%
11,Cc1cccc(C)c1NC(=O)c1cccnc1,-1.22%
12,Clc1ccc2nc(-c3cccs3)c(NC3CCCC3)n2c1,-2.56%
13,CCCCNC(=O)c1cc(-c2ccccn2)nc2ccc(S(=O)(=O)N3CCOCC3)cc12,0.387%
14,CCc1ccccc1NC(=O)c1ccccc1N1C(=O)C2C3C=CC(C3)C2C1=O (centres unmarked),-2.74%
15,Cc1ccc(OCCSc2nc(C)c(C)c(O)n2)cc1,-4.35%
16,Cc1ccccc1-c1nc2s/c(=C\C=C\c3ccccc3)c(=O)n2n1,0.561%
17,O=C(c1cccc([N+](=O)[O-])c1)c1ccc(C(=O)O)c(C(=O)O)c1,-6.71%
18,Cc1ccc2sc(-c3ccc(NC(=O)c4ccccc4)cc3)nc2c1,0.467%
19,CCOC(=O)c1c(NC(=O)CCNCCO)sc2c1CCCC2,0.343%
20,Cn1c(=O)c2c(-c3ccccc3F)c(C#N)c(N)nc2n(C)c1=O,1.45%
21,COCCn1c(COc2ccc(OC)cc2)nc2ccccc21,-2.46%
22,CCO/C(O)=C1\C(C)=NC2=C(C(=O)CC(C)(C)C2)C1CCC1CCCCC1 (centres unmarked),1.88%

row,Compound,% Inhibition @ 10 uM
1,Cc1ncc(CO)c2c1Oc1nc(-c3ccc(Cl)cc3)nc(SCC(N)=O)c1C2,3.02%
2,CCOC(=O)CC(C)(O)P(=O)(OC)OC (centres unmarked),-5.62%
3,COc1cccc(OC)c1OCc1cc(C2C(C#N)=C(N)OC3=C2C(=O)CCC3)c(C)cc1C (centres unmarked),-5.63%
4,O=C(O)C1CCCN1C(=O)OCc1ccccc1 (centres unmarked),4.55%
5,CCCCCC1=C(O)C(=O)c2ccccc2C1=O,3%
6,CCN1CCN(CC(O)COc2ccc(OC)cc2)CC1 (centres unmarked),-5.69%
7,O=C(CSc1c2c(nc3ccccc13)CCC2)Nc1nc2ccccc2s1,-3.09%
8,CCC(=O)N1CCN(c2ccc(NC(=O)Cc3ccccc3)cc2)CC1,0.843%
9,CCN1CCN(c2nc3c(S(=O)(=O)c4ccccc4)nnn3c3ccc(Cl)cc23)CC1,-3.08%
10,O=C(NCCc1ccccc1)Nc1cnc2ccccn2c1=O,2.05%
11,Cc1ccc(NC(=O)c2cnn(-c3ccccc3)c2-n2cccc2)nc1,8.65%
12,N#C/C(=C\c1ccccc1[N+](=O)[O-])C(N)=O,11.1%
13,CCCOc1ccc(C2c3c(oc4ccc(C)cc4c3=O)C(=O)N2CCCN2CCOCC2)cc1 (centres unmarked),2.31%
14,Cc1ccccc1/C=C1\C(=O)NC(=S)N(c2ccc(Cl)cc2Cl)C1=O,10.2%
15,Cn1c(=O)c2c(nc(CN3CCc4ccccc4C3)n2CCc2ccccc2)n(C)c1=O,2%
16,COc1ccc(CN2CCN(c3cccc(Cl)c3)CC2)cc1,-3.65%
17,O=C(c1ccco1)c1cn(Cc2ccc(F)cc2)c2ccccc12,-11%
18,CC1(c2ccccc2)CN(CC(N)=O)CCN1 (centres unmarked),6.03%
19,Cc1ccc2c(c1)-c1c(cnn1CC(=O)NCCN(C)C1CCCCC1)CO2,-4.51%
20,Cc1cccc(OCc2nc(C#N)c(NC(C)c3ccccc3)o2)c1 (centres unmarked),2.46%
21,Cc1nnc(SCc2ccc(C(C)(C)C)cc2)nc1O,3.25%
22,Nc1c(C(=O)NCc2ccc3c(c2)OCO3)nnn1-c1ccc(OC(F)(F)F)cc1,-3.28%

row,Compound,% Inhibition @ 10 uM
1,CN1CCC(NCCc2cccc(Cl)c2)CC1,0.217%
2,Cc1ccc(C2CC(C(F)(F)F)n3ncc(C(=O)N4CCC(C)CC4)c3N2)cc1 (centres unmarked),11.4%
3,CCOc1ccccc1-n1cc2c(c1-c1ccc(Cl)cc1)c(=O)n(C)c(=O)n2C,-10.9%
4,COc1cc2c(cc1OC)C(C(=O)NCc1ccc(F)cc1Cl)C1c3ccccc3CCN1C2=O (centres unmarked),1.08%
5,Cc1noc2ncnc(N3CCN(C(=O)c4ccco4)CC3)c12,-7.93%
6,Cc1cc(O)nc(NCc2ccccc2)n1,3.53%
7,COc1cc(C2C(C#N)=C(N)SC(N)=C2C#N)ccc1O,28.3%
8,C=CCOc1ccc(Cl)cc1/C=C(\C#N)c1nc2ccccc2[nH]1,0.779%
9,COC(=O)C1=C(C)N=C2SCCC(=O)N2C1c1ccc(C(C)(C)C)cc1 (centres unmarked),-7.02%
10,Cc1c(CN2CCc3ccccc3C2)c(=O)n(-c2ccccc2)n1C,-3.8%
11,COc1ccc(C(=O)c2sc3nc4c(cc3c2N)N2CCC4CC2)cc1,-5.17%
12,Cc1nc2c(c(C)nn2C(C)(C)C)c(C)c1CCC(=O)NCCc1c[nH]c2ccccc12,-4.24%
13,CCN(CC)C(=O)c1nc(-c2ccc(Cl)cc2)n2c1CCCCC2,1.9%
14,COc1ccccc1C(=O)N1CCN(c2cccc(C(F)(F)F)c2)CC1,0.163%
15,Cc1ccc2c(=O)cc(C(=O)NC3CCS(=O)(=O)C3)oc2c1C (centres unmarked),-1.47%
16,CN(CCCNS(=O)(=O)c1ccc2nc(O)ccc2c1)Cc1ccccc1,3.8%
17,COc1ccc2cc(S(=O)(=O)c3ccc(F)cc3)c(=O)oc2c1,2.12%
18,Cc1nc2c3cccnc3nn2c(C)c1CCC(=O)NCC1CCN(Cc2cccc(Cl)c2)CC1,6.22%
19,C=CCN1C(=O)NC(=O)/C(=C\c2ccccc2Cl)C1=O,-7.88%
20,CCN(CC)C(=O)c1sc(NC(=O)COc2ccc(C)cc2C)c(C#N)c1C,-4.65%
21,COc1cccc(-c2csc(/C(C#N)=C/Nc3ccc(C(N)=O)cc3)n2)c1,-1.37%
